Measured values taken from article PMC3407085.
These are yes or no findings as the source states them, for the method shown. In cells and extracts the contact can be indirect. Some entries that bind do so weakly or less than the wild type.

Chains of the proteins cited; added tags and fusions are not shown.
UniProt P27540: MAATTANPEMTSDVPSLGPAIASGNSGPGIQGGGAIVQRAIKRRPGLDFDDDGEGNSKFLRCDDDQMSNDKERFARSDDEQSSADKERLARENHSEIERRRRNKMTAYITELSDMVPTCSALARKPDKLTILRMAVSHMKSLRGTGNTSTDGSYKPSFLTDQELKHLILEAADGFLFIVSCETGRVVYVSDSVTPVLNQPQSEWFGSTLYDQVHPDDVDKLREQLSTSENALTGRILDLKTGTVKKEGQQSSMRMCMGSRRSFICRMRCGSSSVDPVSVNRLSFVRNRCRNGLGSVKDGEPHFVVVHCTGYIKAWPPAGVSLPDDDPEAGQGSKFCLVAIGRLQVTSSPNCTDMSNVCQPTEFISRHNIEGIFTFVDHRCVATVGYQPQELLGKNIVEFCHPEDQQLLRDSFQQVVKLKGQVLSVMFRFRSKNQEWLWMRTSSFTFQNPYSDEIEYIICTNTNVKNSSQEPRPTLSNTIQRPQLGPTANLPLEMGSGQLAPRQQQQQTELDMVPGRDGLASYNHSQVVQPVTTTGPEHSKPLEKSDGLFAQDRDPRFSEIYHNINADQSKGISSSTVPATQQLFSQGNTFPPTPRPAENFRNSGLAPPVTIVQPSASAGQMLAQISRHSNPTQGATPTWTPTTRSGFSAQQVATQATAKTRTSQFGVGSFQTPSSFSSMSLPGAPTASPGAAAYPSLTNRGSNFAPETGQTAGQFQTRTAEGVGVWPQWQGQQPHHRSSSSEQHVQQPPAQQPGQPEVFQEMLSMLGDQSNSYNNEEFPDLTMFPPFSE

How the values were obtained:
[1] = biological target: GST-ARNT (UniProt P27540); test: pull-down; GST fusion proteins immobilised on beads; proteins captured from whole lymphoblastoid cell lysates; Western blotting; only the target purified
[2] = biological target: GST-HIF1A (UniProt Q16665); test: as above

Binder	binding [1]	binding [2]
EBNA-5 (endogenous in lymphoblastoid cells) (protein, UniProt Q8AZK7 1-506) MGDRSEGPGPTRPGPPGIGPEGPLGQLLRRHRSPSPTRGGQEPRRVRRRVLVQQEEEVVSGSPSGPRGDRSEGPGPTRPGPPGIGPEGPLGQLLRRHRSPSPTRGGQEPRRVRRRVLVQQEEEVVSGSPSGPRGDRSEGPGPTRPGPPGIGPEGPLGQLLRRHRSPSPTRGGQEPRRVRRRVLVQQEEEVVSGSPSGPRGDRSEGPGPTRPGPPGIGPEGPLGQLLRRHRSPSPTRGGQEPRRVRRRVLVQQEEEVVSGSPSGPRGDRSEGPGPTRPGPPGIGPEGPLGQLLRRHRSPSPTRGGQEPRRVRRRVLVQQEEEVVSGSPSGPRGDRSEGPGPTRPGPPGIGPEGPLGQLLRRHRSPSPTRGGQEPRRVRRRVLVQQEEEVVSGSPSGPRGDRSEGPGPTRPGPPGIGPEGPLGQLLRRHRSPSPTRGGQEPRRVRRRVLVQQEEEVVSGSPSGPLRPRPRPPARSLREWLLRIRDHFEPPTVTTQRQSVYIEEEEDED	no binding	no binding
EBNA-3 (endogenous in lymphoblastoid cells) (protein, UniProt P12977 1-944) MDKDRPGPPALDDNMEEEVPSTSVVQEQVSAGDWENVLIELSDSSSEKEAEDAHLEPAQKGTKRKRVDHDAGGSAPARPMLPPQPDLPGREAILRRFPLDLRTLLQAIGAAATRIDTRAIDQFFGSQISNTEMYIMYAMAIRQAIRDRRRNPASRRDQAKWRLQTLAAGWPMGYQAYSSWMYSYTDHQTTPTFVHLQATLGCTGGRRCHVTFSAGTFKLPRCTPGDRQWLYVQSSVGNIVQSCNPRYSIFFDYMAIHRSLTKIWEEVLTPDQRVSFMEFLGFLQRTDLSYIKSFVSDALGTTSIQTPWIDDNPSTETAQAWNAGFLRGRAYGIDLLRTEGEHVEGATGETREESEDTESDGDDEDLPCIVSRGGPKVKRPPIFIRRLHRLLLMRAGKRTEQGKEVLEKARGSTYGTPRPPVPKPRPEVPQSDETATSHGSAQVPEPPTIHLAAQGMAYPLHEQHGMAPCPVAQAPPTPLPPVSPGDQLPGVFSDGRVACAPVPAPAGPIVRPWEPSLTQAAGQAFAPVRPQHMPVEPVPVPTVALERPVYPKPVRPAPPKIAMQGPGETSGIRRARERWRPAPWTPNPPRSPSQMSVRDRLARLRAEAQVKQASVEVQPPQLTQVSPQQPMEGPLVPEQQMFPGAPFSQVADVVRAPGVPAMQPQYFDLPLIQPISQGAPVAPLRASMGPVPPVPATQPQYFDIPLTEPINQGASAAHFLPQQPMEGPLVPEQWMFPGAALSQSVRPGVAQSQYFDLPLTQPINHGAPAAHFLHQPPMEGPWVPEQWMFQGAPPSQGTDVVQHQLDALGYTLHGLNHPGVPVSPAVNQYHLSQAAFGLPIDEDESGEGSDTSEPCEALDLSIHGRPCPQAPEWPVQEEGGQDATEVLDLSIHGRPRPRTPEWPVQGEGGQNVTGPETRRVVVSAVVHMCQDDEFPDLQDPPDEA	–	binds
